{"source": "PubChem BioAssay (NCI)", "note": "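Following 48 hours of exposure in 96-well plates, responses at five concentrations were used to interpolate endpoints linearly. GI50 is the concentration that inhibits growth by half. TGI: concentration producing complete growth inhibition.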", "data": [{"system": "NCI-H322M lung", "assay": "NCI-60 cell line screen, 48 h", "units": {"GI50": "µM", "TGI": "µM"}, "values": [{"smiles": "Cc1nc2ccccc2c(/C=C/c2ccc(Br)cc2)c1C(=O)/C=C/c1ccccc1", "GI50": 1.59, "TGI": 3.2}, {"smiles": "CN1CCN(Cc2ccc(NC(=O)c3[nH]ncc3Nc3ncnc4sc5c(c34)CCCC5)cc2)CC1", "GI50": 0.317, "TGI": 1.45}, {"smiles": "COc1cc(-c2cc(-c3cc([N+](=O)[O-])c(/C=N/NC(=O)c4ccncc4)o3)ccc2OC)ccc1C", "TGI": "> 100"}, {"smiles": "O=C(O)CNC(=O)c1c2ccccc2nc2ccccc12", "TGI": "> 100"}, {"smiles": "Cn1c2ccccc2n2c(=O)c3c(c(C#N)c12)CCCC3", "TGI": "> 100"}, {"smiles": "COc1ccc(C(=O)c2[nH]c(Nc3ccc(Cl)cc3)c(C(=S)Nc3ccccc3)c2N)cc1", "TGI": "> 100"}, {"smiles": "CN(C)CCCN1c2ccccc2CCc2ccc([N+](=O)[O-])cc21", "TGI": 48.5}, {"smiles": "O=C1NC(=S)N(c2ccccc2)C1=O", "TGI": "> 100"}, {"smiles": "CNS(=O)(=O)NNS(=O)(=O)c1ccc(Cl)cc1", "TGI": "> 100"}, {"smiles": "COc1ccc(-n2cnc3c(NC(CCSC)C(=O)O)ncnc32)cc1", "note": "(configuration not stated)", "TGI": "> 100"}, {"smiles": "FC(F)(F)c1ccc2nc(Sc3ccccn3)cnc2c1", "TGI": "> 100"}, {"smiles": "O=C1C[C@@H](c2ccccc2)O[C@@H](c2ccccc2)C1", "TGI": "> 100"}, {"smiles": "COc1cccc(NC(=O)C(C#N)=C(SC)SC)c1", "TGI": "> 100"}, {"smiles": "CC(C)(C)c1ccc(C(=O)Nc2sc3c(c2C(N)=O)CCC(=O)C3)cc1", "GI50": 2.77, "TGI": 16.8}, {"smiles": "N#Cc1c(N)[nH]c2ccc(Sc3ccccc3)cc12", "TGI": 16.8}, {"smiles": "Nc1ccc(CCN2CCN(CCCc3ccccc3)CC2)cc1", "TGI": "> 100"}, {"smiles": "C[C@@H]1O[C@@H](OC[C@H]2O[C@@H](OCCc3ccc(O)c(O)c3)[C@H](O)[C@@H](O)[C@@H]2OC(=O)/C=C/c2ccc(O)c(O)c2)[C@H](O)[C@H](O)[C@H]1O", "GI50": "> 100", "TGI": "> 100"}, {"smiles": "COC(=O)C1=C(C)N2[C@H](C(=O)O)CO[C@@]2(C)[C@H](C(=O)OC)[C@H]1c1cccc([N+](=O)[O-])c1", "TGI": "> 100"}, {"smiles": "CC(C)(C)OC(=O)NCCC1CN(C(=O)c2ccccc2)c2ccccc21", "note": "(configuration not stated)", "TGI": "> 100"}, {"smiles": "O=c1onc2c3ccccc3ncn12", "TGI": "> 100"}, {"smiles": "CC(C)CN=C(N)N=C(N)N", "TGI": "> 100"}, {"smiles": "O=C(/C=C/c1csc(-c2ccccc2)n1)NCc1ccc(C(=O)NCc2ccccc2)cc1", "TGI": "> 100"}, {"smiles": "CCC[C@H](C)C[C@H](C)C[C@H](C)/C=C(\\C)[C@@H](O)[C@@H](C)C(=O)CC", "TGI": 37.5}, {"smiles": "CCN(Cc1ccc(Cl)s1)c1ccc(CO)c(Cl)c1", "GI50": 6.05, "TGI": 35.1}, {"smiles": "N#CN1CC[C@H](C(=O)Nc2ncc(-c3ccncc3)s2)C1", "GI50": 0.0863, "TGI": 26.3}, {"smiles": "Nc1ccc(C(=O)NN2C(=O)C(Cl)C2c2ccccc2)cc1", "note": "(configuration not stated)", "TGI": "> 100"}, {"smiles": "CC1(C)N=C(N)N=C(N)N1c1ccc(CCCCc2ccc(S(=O)(=O)F)cc2)c(Cl)c1", "GI50": 0.709, "TGI": 20.8}, {"smiles": "CCOC(=O)C(=O)Nc1cc(Cl)ccc1Cl", "TGI": "> 100"}, {"smiles": "CC(=O)c1c(C(F)(F)F)n([O-])c2ccc(C)cc2[n+]1=O", "GI50": 6.61, "TGI": "> 73.5"}, {"smiles": "CSC(=S)N/N=C(\\C)c1cccc(C)n1", "TGI": 75.1}, {"smiles": "O=C(NC1CCCC1=O)c1ccccc1", "note": "(configuration not stated)", "TGI": "> 100"}, {"smiles": "CC1(C)CCC[C@]2(C)[C@@H](C=O)C(C=O)=CC[C@@H]12", "TGI": "> 100"}, {"smiles": "Brc1ccc(-c2cn3ccncc3n2)cc1", "TGI": "> 100"}, {"smiles": "CCC1(COC(NC(=O)c2ccccc2)(C(F)(F)F)C(F)(F)F)COC1", "TGI": "> 100"}, {"smiles": "COC(CN1C=C(Sc2ccccc2)CC1)OC", "TGI": "> 100"}, {"smiles": "CC1(C)OCC(C(O)C2OC(C)(C)OC2/C=N\\O)O1", "note": "(configuration not stated)", "TGI": "> 100"}, {"smiles": "COc1ccc(N=C2C(=Nc3ccc(OC)cc3)N(c3ccccc3)C(=S)N2N=C=C2Sc3ccccc3N2C)cc1", "TGI": "> 100"}, {"smiles": "CCCc1ccc(NCc2cc(OC)c(OC)c(OC)c2)cc1", "TGI": "> 100"}, {"smiles": "CC(C)C1=CC23CCC4C(C)(C(=O)O)CCCC4(C)C2CC1C1C(=O)N(c2ccc(C(=O)O)cc2)C(=O)C13", "note": "(configuration not stated)", "TGI": "> 100"}, {"smiles": "C#CCOc1cccc(Nc2ncnc3c(NC(=O)CCl)cccc23)c1", "GI50": 16.7, "TGI": 35.4}, {"smiles": "CCOc1nc(N)nc(C)c1N=Nc1ccc(Cl)cc1", "TGI": "> 100"}, {"smiles": "CC(C)=C/C=C1/CS(=O)(=O)C=C1C", "TGI": "> 100"}, {"smiles": "CC[C@@H](/C=C\\CCC(=O)C[C@H](O)CCC=C(C)C)O[Si](C(C)C)(C(C)C)C(C)C", "TGI": "> 100"}, {"smiles": "O=[N+]([O-])c1cc(S(=O)(=O)Oc2ccccc2)ccc1Cl", "GI50": 2.18, "TGI": 4.22}, {"smiles": "COc1cc([C@@H]2c3cc(O)c(OC)cc3C=C(C(N)=O)[C@H]2C(N)=O)ccc1O", "TGI": "> 100"}, {"smiles": "COc1ccc2oc(=N)c(C(=O)Nc3ccccn3)cc2c1", "TGI": "> 100"}, {"smiles": "COC(=O)c1c(OC(C)=O)ccc2c1c1c(OC(C)=O)c3ccccc3c(OC(C)=O)c1n2Cc1ccccc1", "TGI": 27.3}]}]}
